Experimental data from PubChem BioAssay AID1508624 (National Center for Advancing Translational Sciences (NCATS), 2021).
Screen size: about 48,000 compounds; about 120 (0.25%) were called active. Another 4% or so got no clear call; they are omitted. The call rests on the fitted dose curve; in most records, active means well fitted activation curve with a large enough effect; inconclusive means small, poorly fitted or top-dose-only effect, or another doubt; inactive means no such curve, though single readings can be large or run the other way. Some of the results follow.

Assay: Primary qHTS for Identification of Small Molecule Activators of Huntingtin-Antisense Promoter Activity; further: nearly all actives have a fitted effect of over 55% in size
Details: HEK293 HTT-AS promoter firefly luciferase reporter (activity 0% = vehicle and -100% = no light), 24 h; series mostly up to 57.5 µM; activity change, positive = activation: at the top concentration
Summary of the method: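 Luminescence was read after Dual-Glo reagent and a 10 min room-temperature incubation. Values were normalized to vehicle (0% activity) and zero RLU (-100% activity). Reporter HEK293 cells had been exposed to compounds (up to 57.5 uM final) for 24 h.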

Activity change, positive = activation, inactive:
COc1ccc(OC)c(NC(=O)Cn2c(=O)n(CC3CCCO3)c(=O)c3cc(OC)c(OC)cc32)c1 (centres undefined) -12.3%, COc1ccc(NC(=O)CN(C)S(=O)(=O)c2ccc3c(c2)CCC(=O)N3)c(OC)c1 -8.96%, CCOc1ccccc1CNC(=O)CN1C(=O)CSc2ccc(S(=O)(=O)N3CCOCC3)cc21 -17.2%, O=C(c1ccc2c(c1)CCN2S(=O)(=O)c1ccccc1)N1CCN(c2cccc(Cl)c2)CC1 -8.27%, CCOC(=O)CNc1nc2ccccc2n2c(C)nnc12 1.84%, CCc1ccc(NC(=O)CSc2nc3c(sc4ccccc43)c(=O)n2CCCOC)cc1 -9.54%, Cc1ccc(CNC(=O)c2cnc(N3CCCCC3)c3ccccc23)cc1 -20.3%, CCN1CCC[C@H]1CNC(=O)c1c(O)c(Cl)cc(Cl)c1OC -1.45%, Cc1ccc(C)c(NC(=O)Cn2nnc(C(=O)NCCc3ccccc3)c2N)c1 -14.4%, CCOC(=O)c1ccc(NC(=O)C(CC)Sc2nnc3c4ccccc4n(C)c3n2)cc1 (centres undefined) -4.87%, CC[C@@H]([C@H](C)O)n1ncn(-c2ccc(N3CCN(c4ccc(OC[C@@H]5CO[C@@](Cn6cncn6)(c6ccc(F)cc6F)C5)cc4)CC3)cc2)c1=O -10.9%, Cc1cc(C)c(NC(=O)Cn2c(=O)n(Cc3ccc4c(c3)OCO4)c(=O)c3ccccc32)c(C)c1 -10.4%, CCC1=Nc2cc(C(=O)NCc3ccccc3Cl)ccc2Sc2ccc(C)cc21 -32.7%, N#Cc1cccc(Nc2ncnc3c2cnn3-c2cccc(Cl)c2)c1 17.5%, O=C(CSc1nncn2c1cc1occc12)Nc1ccccc1C(F)(F)F -30.8%, CCc1ccccc1NC(=O)CN(c1cccc(C)c1C)S(C)(=O)=O -23.1%, CCOC(=O)C1CCCN(S(=O)(=O)c2ccc3c(c2)CCN3C(=O)CC)C1 (centres undefined) -26.7%, Cc1cccc2sc(N3CCN(C(=O)CS(=O)(=O)c4ccc(F)cc4)CC3)nc12 -11.8%, CCOC(=O)c1c(C)[nH]c(CCC(=O)Nc2c(Cl)cc(OC)cc2OC)c1C -25.4%, CCCc1nc2nc(C)c(NS(=O)(=O)c3ccc(F)cc3)c(=O)n2[nH]1 9.19%, Cc1cc(C(=O)N2CCN(c3ccc(F)cc3)CC2)c2c(C)nn(-c3cccc(Cl)c3C)c2n1 -13.4%, CCc1ccc(S(=O)(=O)c2cnc3ccc(OC)cc3c2N2CCCC(C)C2)cc1 (centres undefined) -24%, COc1ccc(CNC(=O)Cn2c(=O)nc(-c3ccccc3F)c3cc(Cl)ccc32)cc1OC -9.7%, CCOC(=O)c1noc2ncnc(N3CCN(c4cccc(Cl)c4)CC3)c12 -10.1%, CCOC(=O)N1CCc2c(sc3c2c(=O)n(-c2ccc(Cl)cc2)c(=O)n3Cc2cccc(OC)c2)C1 -24.9%, COc1ccc(-c2nc3nc(C)cc(N4CCN(c5cccc(C(F)(F)F)c5)CC4)n3n2)cc1 -6.3%, COCCCNC(=O)c1ccc(Cn2c(=O)c3ccccc3n(CC(=O)Nc3ccc(C)cc3C)c2=O)cc1 -4.11%, Cc1cc(C)cc(NC(=O)Cn2nnc(C(=O)NCc3ccccc3Cl)c2N)c1 -21.6%, CCOc1ccc(C(=O)Nc2ccccc2C(=O)OCc2cc(=O)n3nc(C4CC4)sc3n2)cc1 35%, COc1ccc(CCNC(=O)c2cc3c(s2)-c2c(C)cccc2OC3)c(OC)c1 -20.9%, Cc1cccc(N2CC(c3nc4ccccc4n3CCC3CCCCC3)CC2=O)c1 (centres undefined) -47.2%, Cc1cccc2c1-c1sc(C(=O)NCc3ccc(Cl)cc3)cc1CO2 -3.99%, CCN(Cc1ccccc1)C(=O)c1cc2c(=O)oc3ccc(C)cc3c2s1 -6.4%, Cc1ccc(-c2nc(S(=O)(=O)c3ccc(C)cc3)c(SCC(=O)Nc3ccc(F)cc3)o2)cc1 -8.81%, CCc1ccc(S(=O)(=O)c2nnn3c2nc(Nc2cc(OC)cc(OC)c2)c2cc(Cl)ccc23)cc1 0%, CCOc1ccccc1CNC(=O)c1cn(-c2ccc(OC)cc2)c(=O)c2ccccc12 -20.4%, COc1cccc(C2=C(C(C)=O)Sc3nnc(C4CCCCC4)n3N2C(C)=O)c1 -44%, CCOc1ccc(NC(C)=O)cc1 -9.62%, COc1cccc(CNC(=O)CSc2n[nH]c(-c3ccccc3Cl)n2)c1OC -19.9%, Cc1cccc(NC(=O)CSc2nc(=O)n(Cc3ccco3)c3c2CCC3)c1C -18.8%, CCOc1ccc(NC(=O)[C@H]2O[C@@H]3OC(C)(C)O[C@@H]3[C@H]3OC(C)(C)O[C@H]32)cc1 -48.4%, CN1CCC[C@@H]1CCO[C@](C)(c1ccccc1)c1ccc(Cl)cc1 -17.3%, O=c1c(N2CCN(c3cccc(Cl)c3)CC2)csc2ccccc12 -10.3%, Cc1cc(C)cc(NC(=O)C(=O)NCCCN2CCOCC2)c1 -4.96%, Cc1ccc2cc3cc(C(=O)N4CCN(c5ccccc5)CC4)oc3nc2c1 -14.3%, CCc1nn(CC(=O)NCc2ccccc2Cl)c(=O)c2cc3ccccc3n12 -6.51%, CCOc1ccc(CN(C(=O)c2nc(SC)ncc2Cl)C2CCS(=O)(=O)C2)cc1 (centres undefined) 4.97%, O=C(Nc1nc2ccc(S(=O)(=O)N3CCCC3)cc2s1)c1ccc(F)cc1 -25.5%, CC1CCCCN1CCCNC(=O)c1ccc2c(c1)sc1nc(-c3ccc(F)cc3)cn12 (centres undefined) 13.7%, CCc1ccc(Oc2c(C(F)(F)F)oc3c(CN4CCN(CC)CC4)c(O)ccc3c2=O)cc1 -26.9%, COc1ccc(C(=O)NCC(c2ccc(N(C)C)cc2)N2CCCC2)cc1 (centres undefined) -8.49%, CC(=O)c1ccc(N2CCN(c3nc4c(S(=O)(=O)c5ccc(C)c(C)c5)nnn4c4ccc(Cl)cc34)CC2)cc1 6.48%, Cc1cc(C)cc(-n2ccnc2SCC(=O)Nc2ccc(C)cc2C)c1 -17.9%, CCC(=O)N1CCc2cc(Br)cc(S(=O)(=O)CCC(=O)N3CCN(c4ccc(OC)cc4)CC3)c21 22.3%, CCOc1ccc2oc(=O)cc(CN3CCN(Cc4ccc(F)cc4)CC3)c2c1 -23.5%, O=C(CCCn1c(=O)c2ccccc2n(CC(=O)Nc2cccc(Cl)c2)c1=O)NCc1ccc2c(c1)OCO2 -1.36%, CCC(C(=O)Nc1cc(OC)ccc1OC)n1c(=O)c(C(F)(F)F)nc2ccccc21 (centres undefined) -0.573%, CCC(=O)Nc1ccccc1-c1nc2ccccc2n(C(C)C(=O)Nc2cccc(Cl)c2C)c1=O (centres undefined) -16.3%, COc1cc(NC(=O)CNC(=O)Cn2ccc3ccccc3c2=O)cc(OC)c1OC -19.3%, COCCn1c(C)cc(O)c(C(c2ccc(Cl)cc2)N2CCN(c3ccccc3)CC2)c1=O (centres undefined) 11%, CN1C(C(=O)c2ccccc2)=C(NC(=O)c2ccccc2Br)c2ccccc2S1(=O)=O -5.74%, COc1ccc(NC(=O)Nc2cccc(OCc3cc(=O)n4cccc(C)c4n3)c2)c(OC)c1 -14.2%, CCCCCSc1nnc2c(n1)OC(CC)Nc1ccc(Br)cc1-2 (centres undefined) -25.5%, Cc1nc2ccc(S(=O)(=O)NC(C(=O)N3CCN(c4ccc(Cl)cc4)CC3)C(C)C)cc2s1 (centres undefined) -27.8%, O=c1n(Cc2ccc(Cl)cc2)c2ccccc2c2nc(-c3ccccc3)nn12 -14.1%, CCc1ccc(NC(=O)Cc2csc(COc3cccc(C)c3)n2)cc1 -8.09%, CCn1c(=O)cc(SCC(=O)NCCc2cccc(C)c2)c2ccccc21 -0.106%, O=S(=O)(c1ccc2[nH]c3c(c2c1)CCCC3)N1CCN(c2cccc(C(F)(F)F)c2)CC1 -25.4%, Cc1cc(C)cc(Nc2nc3ccccc3n3cnnc23)c1 -4.81%, COc1ccc(-c2cc(C(C)=O)c(C)n2CCC(=O)Nc2ccc(C)cc2Cl)cc1 -33.2%, COc1cc(C2N=C(N)Nc3nc4ccccc4n32)ccc1OCC(=O)O (centres undefined) 1.68%, CCN(C(=O)c1cccn(Cc2ccccc2C)c1=O)c1ccccc1 -3.26%, CCOC(=O)C1CCN(C(=O)Cn2ncc3c4ccccc4n(Cc4ccccc4F)c3c2=O)CC1 -17.5%, CN(C)c1ccc(NC(=O)CN2C(=O)c3ccccc3Sc3ccc(C(=O)N4CCCC4)cc32)cc1 -27.1%, Cc1ccc(NC(=O)CN2C(=O)CCn3nc(-c4cccn4C)cc32)c(Cl)c1 -23.4%, Cc1nnc(NC(=O)CSc2nnc3c(n2)[nH]c2ccccc23)s1 -9.55%, Cc1nn(CCCC(=O)NCc2cccc(Cl)c2)c(=O)c2c1sc1ccccc12 -2.44%, Cc1cccc(N2CCN(CCCNC(=O)c3sc4ncccc4c3-n3cccc3)CC2C)c1 (centres undefined) -28.1%, Cc1cccc(Nc2nc(N[C@@H]3CCCC[C@H]3N)ncc2C(N)=O)c1 -8.88%, O=C(Cn1c(-c2cccs2)cc2cc(F)ccc21)NCCCN1CCN(c2ccccc2F)CC1 -40.5%, Cc1ccc(F)cc1NC(=O)c1ccc(Cn2nc(N3CCN(c4ccccc4)CC3)ccc2=O)o1 -42.7%, O=c1n(Cc2ccc(F)cc2)nc2n1-c1cc(Cl)ccc1OC2 -9.78%, Cc1ccc(Cc2cnc(NC(=O)C3Cc4ccc(C)cc4C(=O)O3)s2)cc1 (centres undefined) -1.18%, COc1ccc(/C=C/C(=O)c2ccc(OC)cc2OC)cc1 0.936%, COC(=O)c1cnn(-c2ccc(C(=O)Nc3ccc(OC(F)(F)F)cc3)cc2)c1N -37.6%, CCc1ccc(NC(=O)CN2CCSc3ccc(S(=O)(=O)N4CCCC4)cc32)cc1 -38.7%, COc1ccc(CCNc2nc(-c3ccc(F)cc3)cc(C(F)(F)F)n2)cc1OC -27%, COc1ccc(C(CNC(=O)c2cccc([N+](=O)[O-])c2)N2CCOCC2)cc1 (centres undefined) -5.07%, CC(C(=O)O)c1ccc(C(=O)c2cccs2)cc1 (centres undefined) 1.19%, CCOc1ccc(S(=O)(=O)c2cn(C)c3ccccc3c2=O)cc1 8.62%, CC(NC(=O)c1c2c(nc3ccccc13)C(=O)N(C1CCCCC1)C2)c1ccccc1 (centres undefined) -37.4%, COc1cc(/C=C/c2nc3cc(Cl)ccc3c(=O)n2-c2cccc(C(F)(F)F)c2)cc(OC)c1OC -10.5%, COc1cc2ncnc(Nc3ccc(F)c(Cl)c3)c2cc1OCCCN1CCOCC1, COc1ccc(Cn2c(SCC(=O)Nc3ccc(OC)cc3)nc3ccccc32)cc1 -30.4%
